Assay results published in patent publication US20260042854A1, “ANTI-GLP-1R ANTIBODIES AND USES THEREOF” (SCIWIND BIOSCIENCES USA CO., LTD, priority 2022, published 2026).
“Also recorded” adds a separate entry of the source.

What was measured:
C57BL/6 mice = assay: IPGTT in C57BL/6 mice (exogenous GLP-1 added); type: in vivo, mouse; conditions: wildtype C57BL/6, single s.c. injection, GLP-1 25.0 nmol/kg i.p.
Description: 7-9-week-old male C57BL/6 mice (22-26 g) were assigned into 5 groups, with 5 mice in each group, and the mice in each group were treated according to the scheme shown in Table 6. The antibody treatment groups were given a single subcutaneous injection, and were fasted for 18 hours after the administration. […] The blood glucose levels of the mice before (0 min) and 15 min, 30 min. 60 min, 90 min, 120 min and 180 min after the administration of glucose were measured with blood glucose meter. The AUCs of the blood glucose-time curves of each mouse from 0 to 180 min were calculated with GraphPad Prism 9. The blood glucose levels and the AUCs were shown in Mean±SEM and the differences among groups were compared. Statistical differences were analyzed with One-way ANOVA. […] The significance markers were not shown in the line chart since they would overlap and be difficult to distinguish.

[1] = target: T1, hGLP-1R on the cell membrane (HEK293 cells overexpressing hGLP-1R) (Homo sapiens, UniProt P43220); assay: Flow cytometry binding to hGLP-1R on HEK293 cell membrane; conditions: flow cytometry (FACS)
T1 construct: antibody to the full-length hGLP-1R on the cell membrane; host or cells: HEK293
T1 sequence (P43220 24-463): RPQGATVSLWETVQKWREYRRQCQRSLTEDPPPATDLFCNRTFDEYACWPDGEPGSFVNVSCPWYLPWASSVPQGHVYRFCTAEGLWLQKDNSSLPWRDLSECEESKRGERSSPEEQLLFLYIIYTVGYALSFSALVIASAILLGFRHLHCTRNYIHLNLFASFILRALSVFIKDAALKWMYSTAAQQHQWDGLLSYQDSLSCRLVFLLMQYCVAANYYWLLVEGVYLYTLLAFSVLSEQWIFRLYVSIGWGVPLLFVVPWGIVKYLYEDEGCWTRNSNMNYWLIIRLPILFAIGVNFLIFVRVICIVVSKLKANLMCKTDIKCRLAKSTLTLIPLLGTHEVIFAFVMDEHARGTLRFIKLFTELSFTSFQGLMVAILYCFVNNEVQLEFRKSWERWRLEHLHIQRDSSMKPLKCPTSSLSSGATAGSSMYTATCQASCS
Description: HEK293 cells overexpressing hGLP-1R (GenScript Biotech Corporation) were washed with FACS buffer, then added with 50 μL antibody (P16288, P16289, or IgG1 (Sanyou Biopharmaceuticals (Shanghai) Co., Ltd.) as negative control) of 137.0, 45.7, 15.2, 5.1, 1.69, 0.56, 0.19 or 0.018 nM and incubated at 4° C. for 60 minutes. After centrifugation and washing, the cells were added with PE-labeled anti-human IgG Fc (Abcam, ab98596), and incubated at 4° C. for 30 minutes. After centrifugation and washing, the cells were re-suspended into a FACS buffer. The mean fluorescence intensities (MFI) were measured with flow cytometry. The data were analyzed by four-parameter curve fitting with GraphPad Prism 9, and EC50 was calculated.

[2] = target: T2, extracellular domain of hGLP-1R (NP_002053.3, aa 24-145) (Homo sapiens, UniProt P43220); assay: ELISA binding of antibodies to the extracellular domain of hGLP-1R
T2 construct: hGLP-1R (NP_002053.3, aa 24-145); made in house
T2 sequence (P43220 24-145): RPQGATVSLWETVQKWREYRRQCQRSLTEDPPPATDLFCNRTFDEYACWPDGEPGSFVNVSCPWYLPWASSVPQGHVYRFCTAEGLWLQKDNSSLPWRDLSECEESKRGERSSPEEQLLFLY
Description: The extracellular domain of hGLP-1R (NP_002053.3, aa 24-145) was expressed as a recombinant protein. An ELISA plate was coated with 10 μg/mL of hGLP-1R recombinant protein in PBS and incubated overnight at 4° C. The coating solution was removed thereafter and the plate was washed with PBST (PBS+0.05% Tween). Next, the plate was blocked with 1% BSA, washed with PBST, then added with 50 μL antibody (P16288 or P16289) of 6.7, 2.2, 0.44, 0.089, 0.018, 0.0036, 0.00071 or 0 nM, and incubated at room temperature for 60 minutes. After washed with PBST, the plate was added with horseradish peroxidase-labeled anti-human Fc antibody and incubated for 60 minutes. Then, after washed with PBST, the plate was added with TMB substrate for coloration, which was finally terminated by adding 0.5 M H2SO4. The absorbance was measured with microplate reader at 450 nm. The data were analyzed by four-parameter curve fitting with GraphPad Prism 9, and EC50 was calculated.

Mouse GLP-1R = target: T3, Mouse GLP-1R (Mus musculus, UniProt O35659); assay: cAMP HTRF antagonism assay in HEK293 transfected with mouse GLP-1R; type: cell-based
T3 construct: expressed in transfected cells; host or cells: HEK293 (ATCC, CRL-1573)
T3 sequence (O35659 22-463): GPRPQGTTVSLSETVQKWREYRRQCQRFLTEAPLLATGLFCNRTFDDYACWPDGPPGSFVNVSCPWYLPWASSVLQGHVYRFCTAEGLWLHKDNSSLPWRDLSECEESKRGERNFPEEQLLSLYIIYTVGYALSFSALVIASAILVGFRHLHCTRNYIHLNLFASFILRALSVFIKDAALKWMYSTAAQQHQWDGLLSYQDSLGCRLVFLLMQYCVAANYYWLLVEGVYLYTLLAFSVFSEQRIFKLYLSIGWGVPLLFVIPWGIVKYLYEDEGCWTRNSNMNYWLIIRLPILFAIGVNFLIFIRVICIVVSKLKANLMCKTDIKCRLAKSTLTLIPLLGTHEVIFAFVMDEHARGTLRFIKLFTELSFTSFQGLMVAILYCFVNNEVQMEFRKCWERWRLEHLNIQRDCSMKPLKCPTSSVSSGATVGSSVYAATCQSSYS
Description: HEK293 cells (ATCC, cat no. CRL-1573) were transfected with GLP-1R_pcDNA3.1/G418 (+) plasmids which can transcribe the mRNA of human (NM_002062.5), monkey (JN033215.1) and mouse (NM_021332.2) GLP-1R polypeptide. […] The plate was further incubated at 37° C. for 120 minutes. Finally, the CAMP level was measured with cAMP HTRF kit (Cisbio, 62AM4PEB). […] The data were analyzed by four-parameter curve fitting with GraphPad Prism 9, and IC50 was calculated.

hGLP-1R = hGLP-1R (Homo sapiens, UniProt P43220); assay: hGLP-1R-CRE-Luciferase-HEK293 reporter gene assay (antagonism of GLP-1); type: cell-based; design: expressed in transfected cells; conditions: 2.5 ng/mL GLP-1, luciferase reporter
hGLP-1R, sequence (P43220 24-463): as the sequence (P43220 24-463) above
Description: HEK293 cells overexpressing hGLP-1R were transfected with a plasmid containing a luciferase expression cassette driven by multiple copies of cAMP response elements (CRE), to obtain a stably transfected hGLP-1R-CRE-Luciferase-HEK293 cell line containing the luciferase-expressing plasmid.
(§1) 100 μL of Bright-Glo reagent (Promega Corporation) was added, and the plate was tapped gently to facilitate the mixing of the solution. Chemiluminescence value was read with microplate reader after three minutes. […] The data were analyzed by four-parameter curve fitting with GraphPad Prism 9, and IC50 was calculated.
as §1

B1: P16288: Fully human anti-GLP-1R IgG4 (S228P) antibody; heavy chain SEQ ID NO: 9, light chain SEQ ID NO: 10 (antibody)
heavy: QVQLVQSGAEMKKPGASVKVSCKTSGYRFSTYVISWVRQTPGQGLEWMGWISPYTGDIDYAQKFQGRVTITADESTSTAYMELSRLRSDDTAVYYCARERDGYNFPGMDVWGQGTTVTVSSASTKGPSVFPLAPCSRSTSESTAALGCLVKDYFPEPVTVSWNSGALTSGVHTFPAVLQSSGLYSLSSVVTVPSSSLGTKTYTCNVDHKPSNTKVDKRV[human IgG4 Fc with S228P (EU numbers) not listed]
light: DIQLTQSPSFLSASVGDRVTITCRASQGISSYLAWYQQKPGRAPKLLIYSASTLQRGVPSRFSGSGSGTDFTLTISSLQPEDYATYYCQQADSFPPSFGPGTKVDIKRTVAAPSVFIFPPSDEQLKSGTASVVCLLNNFYPREAKVQWKVDNALQSGNSQESVTEQDSKDSTYSLSSTLTLSKADYEKHKVYACEVTHQGLSSPVTKSFNRGEC
- effect of antagonizing GLP-1 to raise blood glucose level (in words) (C57BL/6 mice): did not exhibit the effect of antagonizing GLP-1 to raise blood glucose level
- binding to hGLP-1R on the cell membrane (in words) [1]: bound strongly; also recorded: binds strongly
- binding capability to the extracellular domain of hGLP-1R (in words) [2]: high ability of binding; also recorded: have binding capabilities
- antagonism of activation of mouse GLP-1R by GLP-1 (in words) (Mouse GLP-1R): cannot antagonize the activation of mouse GLP-1R
- IC50 (Mouse GLP-1R; 6 ng/ml GLP-1): > 10.2 µM
- antagonism of the activity of native GLP-1 at hGLP-1R (in words) (hGLP-1R): antagonized by P16288 antibody in a dose-dependent manner
